Hit rate of the full screen: of about 310,000 compounds, about 2,200 (0.71%) showed an effect of 50% or more. Effects have a minus sign here. The list shows a part of the results.
Molecular target: human ether-à-go-go-related gene (hERG) potassium channel (human, UniProt Q12809)
Test: primary screen, population patch clamp on CHO cells stably expressing hERG

Sequence of human ether-à-go-go-related gene (hERG) potassium channel (Q12809 whole entry, looked up): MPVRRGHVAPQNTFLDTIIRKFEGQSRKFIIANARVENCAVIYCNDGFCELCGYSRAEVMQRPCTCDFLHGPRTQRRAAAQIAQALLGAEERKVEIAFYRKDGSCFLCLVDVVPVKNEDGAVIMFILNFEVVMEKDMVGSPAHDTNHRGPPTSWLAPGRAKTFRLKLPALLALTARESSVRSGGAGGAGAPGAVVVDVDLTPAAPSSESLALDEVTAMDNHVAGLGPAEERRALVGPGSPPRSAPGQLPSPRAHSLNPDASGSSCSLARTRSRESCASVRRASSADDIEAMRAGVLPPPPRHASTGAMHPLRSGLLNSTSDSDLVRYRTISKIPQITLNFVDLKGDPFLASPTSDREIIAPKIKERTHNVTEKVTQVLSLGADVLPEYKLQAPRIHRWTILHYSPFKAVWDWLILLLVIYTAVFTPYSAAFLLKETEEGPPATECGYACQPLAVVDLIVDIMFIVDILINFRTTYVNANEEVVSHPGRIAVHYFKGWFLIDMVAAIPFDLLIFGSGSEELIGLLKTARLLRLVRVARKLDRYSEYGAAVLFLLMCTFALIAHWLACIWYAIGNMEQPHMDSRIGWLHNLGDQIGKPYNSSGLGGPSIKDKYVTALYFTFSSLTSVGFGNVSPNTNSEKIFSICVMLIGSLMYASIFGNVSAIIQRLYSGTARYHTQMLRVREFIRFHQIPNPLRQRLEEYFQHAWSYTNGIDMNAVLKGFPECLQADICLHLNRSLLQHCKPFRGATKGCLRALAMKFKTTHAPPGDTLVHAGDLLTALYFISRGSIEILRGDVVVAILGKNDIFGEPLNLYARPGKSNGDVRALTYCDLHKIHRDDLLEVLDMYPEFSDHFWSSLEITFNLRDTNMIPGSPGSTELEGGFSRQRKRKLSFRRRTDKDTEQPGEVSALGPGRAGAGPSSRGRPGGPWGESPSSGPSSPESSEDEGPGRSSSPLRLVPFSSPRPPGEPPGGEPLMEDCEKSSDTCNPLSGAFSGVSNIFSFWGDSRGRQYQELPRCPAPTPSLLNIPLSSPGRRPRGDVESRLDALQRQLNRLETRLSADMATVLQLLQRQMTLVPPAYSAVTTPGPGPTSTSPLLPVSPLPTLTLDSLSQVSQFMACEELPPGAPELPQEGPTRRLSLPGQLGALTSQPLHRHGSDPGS

SMILES | hERG current change (%, negative = inhibition) at 1uM [%]
O=C(CCCN1C(=O)c2ccccc2C1=O)Nc1ccccc1C(=O)N1CCOCC1 | 13.6
Cc1c(NC(=S)NC(=O)C2CCCCC2)c(=O)n(-c2ccccc2)n1C | 13.1
O=C(Nc1ccc(F)cc1)Nc1ccc(Cl)cn1 | -0.0419
Cc1cccc(N2CCN(C(=O)c3noc4c3COc3ccc(C)cc3-4)CC2C)c1 (stereo not drawn) | 5.78
CCOc1ccc(OCCNC2CCCC2)cc1 | 2.09
Cc1cccc(C(=O)NC2CC3CCCC(C2)N3S(=O)(=O)c2ccccc2)c1 (stereo not drawn) | -63.4
COc1ccc(C(=O)CSc2nnc(NC(=O)C3CC(=O)N(c4cccc(OC)c4)C3)s2)cc1 (stereo not drawn) | 17.6
CCN1CCN(C(=S)NC(CC(=O)c2ccccc2)c2ccccc2)CC1 (stereo not drawn) | 6.93
COC(=O)Cc1ccc(NC(=S)NCc2ccccc2)cc1 | 7.84
O=C(Nc1ccc(S(=O)(=O)Nc2nccs2)cc1)c1cccc(F)c1 | 9.61
Cc1c(O)ccc(-c2n[nH]c(C(=O)O)c2-c2nc3ccccc3s2)c1O | 7.78
CC(C)(C)c1cc(CCC(=O)NCc2ccccn2)cc(C(C)(C)C)c1O | 7.58
C=CCC(NCc1ccccc1)c1ccc(C)o1.Cl (stereo not drawn) | 10
Cc1ccc(/C=C2\Oc3c(ccc(O)c3CN3CCN(CCO)CC3)C2=O)cc1 | 6.51
COc1ccccc1N1CCN(C(=O)CCC(=O)O)CC1 | 8.72
CCc1ccc(-c2cc(C)no2)cc1S(=O)(=O)N1CCN(c2ccccc2OC)CC1 | 9.66
O=S(=O)(CCN1CCOCC1)c1ccc(Cl)cc1 | 10.2
CCn1c(-c2cccnc2Cl)nc2ccccc21 | 2.16
O=C(COC(=O)c1ccc(O)cc1O)NC(=O)NCc1ccccc1 | 6.94
CCOC(=O)CSC1=C(C#N)C(c2ccco2)C(C(=O)OCc2ccccc2)=C(C)N1 (stereo not drawn) | -0.541
COc1ccc2nc(C)cc(NCCN3CCOCC3)c2c1 | 12.3
CCN1C(=O)c2cccc3c(S(=O)(=O)Nc4c(C)n(C)n(-c5ccccc5)c4=O)ccc1c23 | 7.85
COc1ccc(-c2cc(C(=O)N3CCN(c4ccc(F)cc4)CC3)no2)cc1 | 17.1

SMILES | hERG current change (%, negative = inhibition) at 1uM [%]
Cc1ccc(C2=NOC(C)(c3nnc(-c4ccccc4)o3)C2)cc1 (stereo not drawn) | 2.28
CC(=NCc1ccc2c(c1)OCO2)c1c(O)n(-c2ccccc2)c(=O)[nH]c1=O | 8.35
NS(=O)(=O)c1ccc(CCNC(=O)C(=O)NCC2OCCN2C(=O)c2ccc3c(c2)OCO3)cc1 (stereo not drawn) | 5.74
Cn1cc(/C=N/NC(=O)COc2ccccc2[N+](=O)[O-])c2ccccc21 | 19.2
Cc1noc(C)c1C(=O)Nc1sc2c(c1C(N)=O)CCCCC2 | 5.05
COc1ccc(C(=O)C2CCCN(Cc3ccc4nonc4c3)C2)c(OC)c1 (stereo not drawn) | -10.8
CCCCOC(=O)c1cccnc1 | 9.4
CCCCN(C(=O)c1cccc(S(=O)(=O)N2CCN(C)CC2)c1)c1c(N)n(CCC)c(=O)[nH]c1=O | 1.3
COc1cccc(CN(C)C(=O)CCNC(=O)c2ccc(Br)cc2)c1 | 0.534
O=P(O)(O)CCP(=O)(c1ccccc1)c1ccccc1 | 8.89
COc1cccc(-c2csc(N3CCN(C(=S)Nc4ccccc4Cl)CC3)n2)c1 | 3.16
Cc1ccccc1OP(N)(=O)Oc1ccccc1C | 14.7
O=C(O)CSc1ncccc1C(=O)O | -7.34
O=C(O)/C=C\c1ccccc1Oc1cccc(Cl)c1 | 9.91
C=CC(C)(O)CCC=C(C)C (stereo not drawn) | 11.9
COc1ccc(CC(=O)N/N=C(\C)CC(=O)Nc2ccc(N(C)C)cc2)cc1 | 15.1
CCOc1cc(C(=O)OCC(=O)Nc2ccc(Cl)cn2)ccc1OCC(=O)N1CCOCC1 | 4.02
Cc1ccc(/C=C2/Sc3ccc(C(=O)NCc4ccccn4)cc3NC2=O)cc1 | 11.4
CCOCCCNC(=O)N1CCOCC1 | -1.18
COc1ccccc1NC(=O)CSCc1nc2ccccc2[nH]1 | 3.11
CC(=O)c1cccc(NC(=O)c2cccc(S(=O)(=O)N3CCOCC3)c2)c1 | 6.33
C=CCn1c(O)c(C(C)=NCCN2CCCCC2)c(=O)[nH]c1=O | 8.8
Cc1c(C(=O)NCC2CCCO2)oc2c(Cl)cccc12 (stereo not drawn) | 7.54

SMILES | hERG current change (%, negative = inhibition) at 1uM [%]
OCc1nc2ccccc2n1CCCCOc1ccccc1 | 5.11
Cc1ccc(NC(=O)C2CCN(C(=O)c3ccc(Cl)cc3)CC2)nc1 | -1.86
O=C(Oc1cccc(-n2cnnn2)c1)c1ccccc1Cl | 10.6
CC(OC(=O)c1ccc([N+](=O)[O-])o1)C(=O)NC1CCCCC1C (stereo not drawn) | 0.21
CCC(C)NC(=O)COC(=O)Cc1sc(N)nc1-c1ccc(C)cc1 (stereo not drawn) | 6.9
Cc1ccc(CCN2CC(C(=O)O)CC2=O)cc1 (stereo not drawn) | -0.364
COc1cccc(-c2cc(C(=O)Nc3cnn(Cc4ccccc4C)c3)no2)c1 | 6.68
COCCCN=C1NN=C(c2cc(C)n(-c3ccccc3)c2C)CS1 | 0.254
CCOP(=O)(OCC)C(NC(=O)/C=C/c1ccc(OC)cc1)c1ccccc1 (stereo not drawn) | 15.9
CC(C)(C#CC(=O)[O-])OOC(c1ccccc1)(c1ccccc1)c1ccccc1.[Na+] | 11.9
O=C(Nc1nnc(-c2ccc(F)cc2)o1)c1ccc(S(=O)(=O)N2CCOCC2)cc1 | 6.82
O=C(c1cc2ccccc2s1)N1CCN(c2ccccn2)CC1 | 2.78
Fc1ccccc1Cn1nnc2c(-n3ccnc3)ncnc21 | 8.45
CCOC(=O)Cn1nc(C)cc1NC(=O)c1cccnc1 | 6
Cc1ccc([N+](=O)[O-])cc1NC(=S)NCCc1ccccc1 | 13.3
COc1cc([N+](=O)[O-])cc(/C=N/NC(=O)C(O)(c2ccccc2)c2ccccc2)c1O | 6.71
COc1cc(S(=O)(=O)N2CCN(C)CC2)ccc1Cl | 14.8
CC1CN(c2nc3ccccn3c(=O)c2/C=C(\C#N)C(N)=O)CC(C)O1 (stereo not drawn) | 13.8
CCOC(=O)Cn1nc(-c2ccccc2)ccc1=O | -22
O=C(c1ccc(CS(=O)Cc2ccccc2Cl)o1)N1CCN(c2ccccn2)CC1 (stereo not drawn) | 6.6
Cc1ccc(S(=O)(=O)n2[nH]c(=O)c(CCO)c2C)cc1 | 0.0859
O=C(NC12CC3CC(CC(C3)C1)C2)N1CCN(C2CCCCC2)CC1 | 8.1
COc1cc(/C=N/NC(=O)CCN2CCN(Cc3ccccc3)CC2)cc(OC)c1OC | 2.23

SMILES | hERG current change (%, negative = inhibition) at 1uM [%]
CSCCC(NC(=O)COc1ccccc1)C(=O)NCC1COc2ccccc2O1 (stereo not drawn) | 12.5
O=C(Nc1cccnc1)c1cc(-c2ccc(Br)cc2)nc2ccccc12 | 10.7
CS(=O)(=O)N(CC(=O)Nc1ccc(C(N)=O)cc1)C1CCCCC1 | 7.54
COc1ccc(S(=O)(=O)NCc2cccnc2)cc1NC(=O)c1ccccc1 | 14.2
COc1ccc(Cl)cc1N(C(C)=O)c1nc(C)cc(C)c1C#N | 9.88
CCOc1ccc(-c2cccc(NS(=O)(=O)c3ccccc3[N+](=O)[O-])c2)nn1 | 0.782
CCOC(=O)/C=C/C(=O)OCC(=O)Nc1ccc([N+](=O)[O-])cc1 | 13.9
CCCCc1ccc(NC(=O)C2CCN(S(C)(=O)=O)CC2)cc1 | 1.72
COc1cccc(NC(=O)C(=O)NCC2CCCN2S(=O)(=O)c2ccccc2)c1 (stereo not drawn) | 9.99
CCCCC(=O)NCc1ccc(F)cc1 | 13
Cc1ccc(NC(=O)C2C(=O)N(CCO)C3(C)CC2c2ccccc2O3)cc1 (stereo not drawn) | -15.3
CN1CCN(C(=O)c2cnn(-c3ccccc3)c2NC(=O)c2ccccc2F)CC1 | 8.22
O=C(NC1CCCCC1)C(Cc1ccccc1)NS(=O)(=O)c1cccs1 (stereo not drawn) | 13
CCCN(C(=O)c1cn(-c2ccccc2)nc1-c1ccc(OC)cc1)C1CCS(=O)(=O)C1 (stereo not drawn) | 3.17
CCCCCC(=O)Nc1ccc(C(=O)CN2C(=O)NC3(CCCCCC3)C2=O)cc1 | 10.7
CCOc1ccccc1NC(=O)NCc1ccc(F)cc1 | 7.57
COc1ccc(-c2nnc(SCC3CCCO3)n2C)cc1 (stereo not drawn) | 10.3
COc1cccc(CNCCc2ccc(F)cc2)c1.O=C(O)C(=O)O | 4.34
O=S(=O)(NC1CCCC1)c1cccc(-c2nnc(-c3ccccc3)o2)c1 | 3.05
CCN(CC(=O)Nc1c(F)cccc1F)C(=O)c1cc(S(=O)(=O)NCc2ccccc2)ccc1C | 0.981
Cc1cc(C)cc(Oc2ccccc2C=O)c1 | 10.6
